{"source": "patent US5955421A", "about": "“Peptides containing D-2-alkyl-Tryptophan” (priority 1990, dated 1999)", "key": {"GH release": {"tested_on": "GH release", "assay": "Released GH in ten day-rats, s.c. (Table 9)", "type": "in vivo", "conditions": "300 μg/kg s.c., 15 minutes, GH control 10 to 31 ng/ml depending on experiment", "method": "In vivo activity of these compounds was determined in ten day-rats, which were subcutaneously injected (s.c.) with a dose of 300 μg/kg or with different doses in dose-response studies, according to the procedure as described in Deghenghi et. al, Life Sciences 54, 1321 (1994). The released GH was measured 15 minutes following compound administration."}, "Human heart tissue": {"tested_on": "Human heart tissue", "assay": "Inhibition of 125I-Tyr-Ala-HEXARELIN binding to human heart tissue membranes", "conditions": "for inhibition of 125I-Tyr-Ala-HEXARELIN specifically bound / specific binding of 125I-Tyr-Ala-HEXARELIN / IC50: heart", "method": "(§1) Tissue membranes (0.1 mg protein) obtained from the heart and hypothalamus of two different adult subjects were incubated in triplicate with a subsaturating concentration (34 pM, about 48,000 cpm, for heart tissue and 42 pM, about 60,000 cpm for hypothalamus tissue) of ^125 I-Tyr-Ala-HEXARELIN for 40 min at 0° C. in the absence and in the presence of increasing concentrations of the indicated unlabelled peptides. The value in parentheses represents the % of inhibition of ^125 I-Tyr-Ala-HEXARELIN specifically bound.\n(§2) The specific binding of ^125 I-Tyr-Ala-HEXARELIN/0.1 mg membrane protein is expressed as a percent of total radioactivity added."}, "[1]": {"tested_on": "Human hypothalamus tissue", "assay": "Inhibition of 125I-Tyr-Ala-HEXARELIN binding to human hypothalamus tissue membranes", "conditions": "for inhibition of 125I-Tyr-Ala-HEXARELIN specifically bound / specific binding of 125I-Tyr-Ala-HEXARELIN / IC50: hypothalamus", "method": "as §1, §2"}, "[2]": {"conditions": "mean of two subjects, read-out: mean IC50 value"}, "[3]": {"conditions": "subject 1, read-out: IC50 value"}, "[4]": {"conditions": "subject 2, read-out: IC50 value"}}, "note": "Like-named read-outs stand apart in the source and are kept apart here. Part of at least one peptide drawing is inferred or uncertain, most often the ends. Square brackets hold non-standard residues; d marks the D form. Peptide text beside a SMILES is read from it. dTrp(2-Me) = Cc1[nH]c2ccccc2c1C[C@@H](N)C(=O)O; d2Nal = N[C@H](Cc1ccc2ccccc2c1)C(=O)O; GABA = NCCCC(=O)O", "data": [{"compound": "Cc1[nH]c2ccccc2c1C[C@@H](NC(=O)CCCN)C(=O)N[C@H](Cc1ccc2ccccc2c1)C(=O)N[C@@H](Cc1ccccc1)C(=O)N[C@@H](CCCCN)C(N)=O", "note": "[Example 22, GAB-D-2-Mrp-D-βNal-Phe-Lys-NH2] (H-[GABA][dTrp(2-Me)][d2Nal]FK-NH2)", "values": [{"measurement": "GH released", "setting": "GH release", "result": "198.0 ± 13.2", "unit": "ng/mL"}]}, {"compound": "Cc1[nH]c2ccccc2c1C[C@@H](NC(=O)CCCN)C(=O)N[C@H](Cc1c(C)[nH]c2ccccc12)C(=O)N[C@H](Cc1c(C)[nH]c2ccccc12)C(=O)N[C@@H](CCCCN)C(N)=O", "note": "[Example 23, GAB-D-2-Mrp-D-2-Mrp-D-2-Mrp-Lys-NH2] (H-[GABA][dTrp(2-Me)][dTrp(2-Me)][dTrp(2-Me)]K-NH2)", "values": [{"measurement": "inhibition of 125I-Tyr-Ala-HEXARELIN specifically bound", "setting": "Human heart tissue; 0.1 nM peptide, subject 1", "result": 1, "unit": "%"}, {"measurement": "specific binding of 125I-Tyr-Ala-HEXARELIN", "setting": "Human heart tissue; 0.1 nM peptide, subject 1", "result": "20.1% of total radioactivity"}, {"measurement": "inhibition of 125I-Tyr-Ala-HEXARELIN specifically bound", "setting": "Human heart tissue; 0.1 nM peptide, subject 2", "result": 1, "unit": "%"}, {"measurement": "specific binding of 125I-Tyr-Ala-HEXARELIN", "setting": "Human heart tissue; 0.1 nM peptide, subject 2", "result": "23.8% of total radioactivity"}, {"measurement": "inhibition of 125I-Tyr-Ala-HEXARELIN specifically bound", "setting": "Human heart tissue; 1 nM peptide, subject 1", "result": 3, "unit": "%"}, {"measurement": "specific binding of 125I-Tyr-Ala-HEXARELIN", "setting": "Human heart tissue; 1 nM peptide, subject 1", "result": "19.8% of total radioactivity"}, {"measurement": "inhibition of 125I-Tyr-Ala-HEXARELIN specifically bound", "setting": "Human heart tissue; 1 nM peptide, subject 2", "result": 2, "unit": "%"}, {"measurement": "specific binding of 125I-Tyr-Ala-HEXARELIN", "setting": "Human heart tissue; 1 nM peptide, subject 2", "result": "23.5% of total radioactivity"}, {"measurement": "inhibition of 125I-Tyr-Ala-HEXARELIN specifically bound", "setting": "Human heart tissue; 10 nM peptide, subject 1", "result": 19, "unit": "%"}, {"measurement": "specific binding of 125I-Tyr-Ala-HEXARELIN", "setting": "Human heart tissue; 10 nM peptide, subject 1", "result": "16.5% of total radioactivity"}, {"measurement": "inhibition of 125I-Tyr-Ala-HEXARELIN specifically bound", "setting": "Human heart tissue; 10 nM peptide, subject 2", "result": 20, "unit": "%"}, {"measurement": "specific binding of 125I-Tyr-Ala-HEXARELIN", "setting": "Human heart tissue; 10 nM peptide, subject 2", "result": "19.2% of total radioactivity"}, {"measurement": "inhibition of 125I-Tyr-Ala-HEXARELIN specifically bound", "setting": "Human heart tissue; 100 nM peptide, subject 1", "result": 50, "unit": "%"}, {"measurement": "specific binding of 125I-Tyr-Ala-HEXARELIN", "setting": "Human heart tissue; 100 nM peptide, subject 1", "result": "10.2% of total radioactivity"}, {"measurement": "inhibition of 125I-Tyr-Ala-HEXARELIN specifically bound", "setting": "Human heart tissue; 100 nM peptide, subject 2", "result": 53, "unit": "%"}, {"measurement": "specific binding of 125I-Tyr-Ala-HEXARELIN", "setting": "Human heart tissue; 100 nM peptide, subject 2", "result": "11.2% of total radioactivity"}, {"measurement": "inhibition of 125I-Tyr-Ala-HEXARELIN specifically bound", "setting": "Human heart tissue; 1000 nM peptide, subject 1", "result": 80, "unit": "%"}, {"measurement": "specific binding of 125I-Tyr-Ala-HEXARELIN", "setting": "Human heart tissue; 1000 nM peptide, subject 1", "result": "4.0% of total radioactivity"}, {"measurement": "inhibition of 125I-Tyr-Ala-HEXARELIN specifically bound", "setting": "Human heart tissue; 1000 nM peptide, subject 2", "result": 83, "unit": "%"}, {"measurement": "specific binding of 125I-Tyr-Ala-HEXARELIN", "setting": "Human heart tissue; 1000 nM peptide, subject 2", "result": "4.0% of total radioactivity"}, {"measurement": "IC50", "setting": "Human heart tissue; [2]", "result": 59.8, "unit": "nM"}, {"measurement": "IC50", "setting": "Human heart tissue; [3]", "result": 62.7, "unit": "nM"}, {"measurement": "IC50", "setting": "Human heart tissue; [4]", "result": 57, "unit": "nM"}, {"measurement": "binding to heart tissue", "setting": "Human heart tissue; human heart tissue", "result": "only moderate binding to heart tissue"}, {"measurement": "binding to hypothalamus tissue", "setting": "[1]; human hypothalamus tissue", "result": "strong binding to hypothalamus tissue"}, {"measurement": "inhibition of 125I-Tyr-Ala-HEXARELIN specifically bound", "setting": "[1]; 0.1 nM peptide, subject 1", "result": 11, "unit": "%"}, {"measurement": "specific binding of 125I-Tyr-Ala-HEXARELIN", "setting": "[1]; 0.1 nM peptide, subject 1", "result": "9.1% of total radioactivity"}, {"measurement": "inhibition of 125I-Tyr-Ala-HEXARELIN specifically bound", "setting": "[1]; 0.1 nM peptide, subject 2", "result": 7, "unit": "%"}, {"measurement": "specific binding of 125I-Tyr-Ala-HEXARELIN", "setting": "[1]; 0.1 nM peptide, subject 2", "result": "10.0% of total radioactivity"}, {"measurement": "inhibition of 125I-Tyr-Ala-HEXARELIN specifically bound", "setting": "[1]; 1 nM peptide, subject 1", "result": 14, "unit": "%"}, {"measurement": "specific binding of 125I-Tyr-Ala-HEXARELIN", "setting": "[1]; 1 nM peptide, subject 1", "result": "8.8% of total radioactivity"}, {"measurement": "inhibition of 125I-Tyr-Ala-HEXARELIN specifically bound", "setting": "[1]; 1 nM peptide, subject 2", "result": 18, "unit": "%"}, {"measurement": "specific binding of 125I-Tyr-Ala-HEXARELIN", "setting": "[1]; 1 nM peptide, subject 2", "result": "8.9% of total radioactivity"}, {"measurement": "inhibition of 125I-Tyr-Ala-HEXARELIN specifically bound", "setting": "[1]; 10 nM peptide, subject 1", "result": 63, "unit": "%"}, {"measurement": "specific binding of 125I-Tyr-Ala-HEXARELIN", "setting": "[1]; 10 nM peptide, subject 1", "result": "3.8% of total radioactivity"}, {"measurement": "inhibition of 125I-Tyr-Ala-HEXARELIN specifically bound", "setting": "[1]; 10 nM peptide, subject 2", "result": 69, "unit": "%"}, {"measurement": "specific binding of 125I-Tyr-Ala-HEXARELIN", "setting": "[1]; 10 nM peptide, subject 2", "result": "3.3% of total radioactivity"}, {"measurement": "inhibition of 125I-Tyr-Ala-HEXARELIN specifically bound", "setting": "[1]; 100 nM peptide, subject 1", "result": 79, "unit": "%"}, {"measurement": "specific binding of 125I-Tyr-Ala-HEXARELIN", "setting": "[1]; 100 nM peptide, subject 1", "result": "2.1% of total radioactivity"}, {"measurement": "inhibition of 125I-Tyr-Ala-HEXARELIN specifically bound", "setting": "[1]; 100 nM peptide, subject 2", "result": 82, "unit": "%"}, {"measurement": "specific binding of 125I-Tyr-Ala-HEXARELIN", "setting": "[1]; 100 nM peptide, subject 2", "result": "1.9% of total radioactivity"}, {"measurement": "inhibition of 125I-Tyr-Ala-HEXARELIN specifically bound", "setting": "[1]; 1000 nM peptide, subject 1", "result": 97, "unit": "%"}, {"measurement": "specific binding of 125I-Tyr-Ala-HEXARELIN", "setting": "[1]; 1000 nM peptide, subject 1", "result": "0.3% of total radioactivity"}, {"measurement": "inhibition of 125I-Tyr-Ala-HEXARELIN specifically bound", "setting": "[1]; 1000 nM peptide, subject 2", "result": 100, "unit": "%"}, {"measurement": "specific binding of 125I-Tyr-Ala-HEXARELIN", "setting": "[1]; 1000 nM peptide, subject 2", "result": "0% of total radioactivity"}, {"measurement": "IC50", "setting": "[1]; [2]", "result": 5.4, "unit": "nM"}, {"measurement": "IC50", "setting": "[1]; [3]", "result": 6.2, "unit": "nM"}, {"measurement": "IC50", "setting": "[1]; [4]", "result": 4.5, "unit": "nM"}]}]}
